# Source: PMC4336329 (PLoS ONE, 2015)
# The whole screen tested about 310,000 compounds, of which about 2,200 (0.71%) showed an effect of 50% or more. The effect is printed as a negative number. This is one part of the list.
# Molecular target: human ether-à-go-go-related gene (hERG) potassium channel (human, UniProt Q12809)
# Experiment: primary screen, population patch clamp on CHO cells stably expressing hERG
# human ether-à-go-go-related gene (hERG) potassium channel, sequence (Q12809 whole entry, looked up): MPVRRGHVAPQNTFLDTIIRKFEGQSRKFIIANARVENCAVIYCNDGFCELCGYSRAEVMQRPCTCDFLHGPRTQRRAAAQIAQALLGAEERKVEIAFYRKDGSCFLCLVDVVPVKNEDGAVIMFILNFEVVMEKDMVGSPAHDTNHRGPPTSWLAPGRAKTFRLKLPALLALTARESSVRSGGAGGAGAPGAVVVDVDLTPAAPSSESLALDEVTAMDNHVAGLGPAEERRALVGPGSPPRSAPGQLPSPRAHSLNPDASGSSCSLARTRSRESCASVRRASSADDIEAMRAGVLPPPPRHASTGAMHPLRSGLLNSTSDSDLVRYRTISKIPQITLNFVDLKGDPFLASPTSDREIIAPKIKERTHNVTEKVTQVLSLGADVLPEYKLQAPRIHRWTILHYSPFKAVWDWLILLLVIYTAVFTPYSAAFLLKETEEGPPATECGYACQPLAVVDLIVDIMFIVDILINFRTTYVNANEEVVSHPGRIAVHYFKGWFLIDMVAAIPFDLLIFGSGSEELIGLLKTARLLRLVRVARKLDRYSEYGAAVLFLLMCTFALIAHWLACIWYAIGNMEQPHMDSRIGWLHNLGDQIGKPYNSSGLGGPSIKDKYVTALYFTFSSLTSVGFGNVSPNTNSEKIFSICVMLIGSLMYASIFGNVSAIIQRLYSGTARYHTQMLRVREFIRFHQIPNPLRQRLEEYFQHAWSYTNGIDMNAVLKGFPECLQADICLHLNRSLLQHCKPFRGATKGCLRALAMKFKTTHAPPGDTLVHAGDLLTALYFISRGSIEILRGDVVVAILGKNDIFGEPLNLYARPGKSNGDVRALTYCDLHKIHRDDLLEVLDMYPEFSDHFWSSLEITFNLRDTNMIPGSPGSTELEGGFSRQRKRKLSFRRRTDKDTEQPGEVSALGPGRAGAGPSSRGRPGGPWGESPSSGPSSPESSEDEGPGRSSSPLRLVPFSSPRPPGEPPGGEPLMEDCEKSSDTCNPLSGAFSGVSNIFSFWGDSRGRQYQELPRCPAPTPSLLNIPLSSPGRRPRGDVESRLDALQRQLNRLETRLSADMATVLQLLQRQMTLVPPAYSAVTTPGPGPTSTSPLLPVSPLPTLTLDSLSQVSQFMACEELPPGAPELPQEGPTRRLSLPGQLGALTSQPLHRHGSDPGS
row,SMILES,"hERG current change (%, negative = inhibition) at 1uM [%]"
1,O=C(CCCN1C(=O)S/C(=C\C=C\c2ccccc2)C1=O)Nc1ccc(C(=O)O)cc1,16.2
2,Cc1ccc2cc3c(NS(=O)(=O)c4cccc5nonc45)nn(CC(C)C)c3nc2c1,4.86
3,CC(=O)Nc1ccc(C(=O)Nc2ccncc2)cc1,12
4,CCOC(=O)c1c(C)[nH]c(C(=O)OCC(=O)N(CC(C)C)C2CCS(=O)(=O)C2)c1C (stereo not shown),9.09
5,COc1cc2c(cc1OC)-c1c(OC)c(OC)cc3c1C(C2)N(C)CC3 (stereo not shown),5.94
6,Cc1cccc(-c2noc(-c3ccno3)n2)c1,10.4
7,CCOC(=O)C1(Cc2ccccc2)CCN(Cc2cnn(C(C)C)c2)CC1,-2.04
8,COc1ccc(OC)c(N(CC(=O)N2CCCC2)S(C)(=O)=O)c1,9.98
9,COc1ccccc1NC(=O)CNc1ccc(F)c(Cl)c1,1.44
10,CN(C)CCCn1c(=S)[nH]c2sc3c(c2c1=O)CCCC3,6.5
11,CC(Sc1nc(-c2ccccc2)cs1)C(=O)Nc1ccc(Cl)cn1 (stereo not shown),10.6
12,O=C(C1CCC1)N1CCN(S(=O)(=O)c2ccccc2)CC1,14.7
13,CCn1cnc2c1c(=O)n(CC(=O)NCC(C)C)c(=O)n2Cc1ccccc1,14.7
14,COc1ccc(/C=C/C(=O)NCc2cccnc2)cc1,13.1
15,ON1C2CCCCC2N(O)C1c1ccccc1C(F)(F)F (stereo not shown),8.73
16,Cc1ccc(NC(=O)CN(C)C(=O)c2ccc(NC(=O)CC3SC(N4CCCC4)=NC3=O)cc2)cc1 (stereo not shown),4.38
17,NC(=O)[C@@H]1CCCCNc2c(F)cc([N+](=O)[O-])cc2C(=O)N[C@@H](CC(=O)O)C(=O)N[C@@H](CCC(=O)O)C(=O)N1,14.8
18,Cc1ccc2c(c1)C(C)CC(C)(C)N2C(=O)NC1CCCCC1 (stereo not shown),14.8
19,CCOC(=O)N1CCC(NC(=O)C2CCCN2C(=O)OCc2ccccc2)CC1 (stereo not shown),-0.223
20,C/C(=N\NC(=O)c1ccc(NS(=O)(=O)c2cccs2)cc1)c1cccs1,0.571
21,CC(Oc1ccc(F)cc1)C(=O)Oc1ccc(N(C)S(=O)(=O)c2ccccc2)cc1 (stereo not shown),20
22,Cc1cc(C)n2c(SCC(=O)NCc3ccc4c(c3)OCO4)nnc2n1,10.8

row,SMILES,"hERG current change (%, negative = inhibition) at 1uM [%]"
1,Cc1nn(Cc2ccccc2Cl)c(C)c1NC(=O)NC12CC3CC(CC(C3)C1)C2,9.14
2,CCN(CC)c1nc2c3c(nc4c(c3c1C#N)CC(=O)N4c1ccc(Cl)cc1)NC(C)=N2,1.84
3,CN1CCN(S(=O)(=O)c2cccc(C(=O)NCCC3=CCCCC3)c2)CC1,4.76
4,COc1ccc(CCC(=O)Nc2cc(S(=O)(=O)N3CCOCC3)ccc2OC(C)C)cc1,-4.48
5,CC(=O)SC(C[N+](=O)[O-])c1cn(C(C)=O)c2ccccc12 (stereo not shown),7.46
6,Cc1cc(OCC(=O)O)c2ccccc2n1,16.4
7,CN1CCN(c2nc3c(c(=O)[nH]c(=O)n3C)n2Cc2ccccc2)CC1,0.758
8,CCOC(=O)C(O)(CC(=O)Nc1ccc(Cl)cc1Cl)C(F)(F)F (stereo not shown),6.91
9,C(=C\c1nc(N2CCCC2)c2ccccc2n1)/c1ccccc1,-25.2
10,CC(C)(C)c1ccc(/C=C(\c2nc3ccccc3[nH]2)S(=O)(=O)c2ccccc2)cc1,11.5
11,Cc1cc(C(=O)NC2CC(C)(C)Cc3c2cnn3-c2ccccc2)n[nH]1 (stereo not shown),-14
12,COc1ccc(CCNC(=O)CNCC2CCCO2)cc1OC.O=C(O)C(=O)O (stereo not shown),10.5
13,CC1(c2nnc(Cc3ccccc3)o2)CC(c2c(Cl)cccc2Cl)=NO1 (stereo not shown),1.4
14,Cc1ccc(C(=O)/C=C/c2cc(Br)cc(Br)c2O)o1,14.6
15,Cc1ccc(-n2nnnc2SCC(=O)N2CC(=O)Nc3ccccc32)cc1,-0.829
16,Cc1ccc(C)c(OCC(=O)Nc2ccccc2N2CCCC2)c1,13
17,CCNC(=O)C1Cc2ccccc2CN1S(=O)(=O)c1ccc(F)cc1 (stereo not shown),-6.04
18,O=C(CCNS(=O)(=O)c1ccccc1)N1CCCCCCC1,5.17
19,CS(=O)(=O)Nc1ccc(S(=O)(=O)N2CCCCCC2)cc1,-40.1
20,Cc1ccc(NC(=O)CN(C)C(=O)c2ccc(Cl)c([N+](=O)[O-])c2)cc1,-15.3
21,CN(C)C(=O)COC(=O)c1ccccc1Nc1ccc(SC(F)F)cc1,7.32
22,O=C(NC(Cc1ccccc1)C(=O)O)c1cccnc1Cl (stereo not shown),8.38

row,SMILES,"hERG current change (%, negative = inhibition) at 1uM [%]"
1,CCn1c(=O)c2sccc2n(Cc2cc(C(=O)OC)ccc2OC)c1=O,9.16
2,Cc1cccc(N(C(=O)c2ccco2)C(C(=O)NC2CCCC2)c2cccnc2)c1C (stereo not shown),-1.27
3,CCN(CC)CCNC(=O)Cn1ncc2ccccc2c1=O,14.9
4,CCc1c(C)nc2ncnn2c1N1CCCC(C(=O)NCCc2ccc(OC)cc2)C1 (stereo not shown),-1
5,Cc1cc(C)c(NC(=O)Cn2nnc(C(=O)NCc3ccc4c(c3)OCO4)c2N)c(C)c1,12.2
6,O=C(NC(=O)c1csnn1)Nc1ccccc1Cl,8.17
7,CC1(C)CN(c2cccc(-c3ccnc4ncnn34)c2)C1=O,8.75
8,N#Cc1ccc(NC(=O)CN2C(=O)NC3(CCCC3)C2=O)cc1Cl,17.1
9,CCc1ccccc1N(CC(=O)NCc1ccccc1)C(=O)CCC(=O)Nc1ccccn1,8.47
10,Cc1ccc(CNC(=O)C(=O)Nc2nccs2)cc1,15.6
11,CC(C)CNC(=O)COC(=O)c1ccc(Cl)c(S(=O)(=O)N2CCc3ccccc32)c1,14
12,CC/C=C/C(=O)N1CC2(CC(c3cccc(NC(=O)COc4ccc(Cl)cc4)c3)=NO2)C[C@H]1C(N)=O (stereo partly shown),-2.91
13,CC(C)Oc1ccc(S(=O)(=O)N2CCOCC2)cc1NC(=O)C1CCC1,3.74
14,Cc1nc2sc3c(c2c(=N)n1N)CCCC3,9.05
15,O=C(Nn1cnnc1)c1cc2c(s1)CCCCC2,-2.72
16,CC(C)NC(=O)NC(=O)COC(=O)c1ccc(F)cc1F,7.53
17,CCC(=O)Nc1sc2c(c1C#N)CC(C)(C)NC2(C)C,6.85
18,CC(C)Cn1cnc2c1c(=O)n(CC(=O)Nc1ccc3c(c1)OCO3)c(=O)n2Cc1ccccc1,1.82
19,Cc1ccc2cc(C#N)c(SCC(=O)N3CCCc4ccccc43)nc2c1,6.41
20,Cc1ccc(N=Nc2c(C)[nH]n(C(N)=S)c2=O)cc1C,11.2
21,CCOc1ccc(NC(=O)CSc2nnc(CCNC(=O)c3ccc(OC)cc3)n2CC)cc1,-11.6
22,COc1ccc(S(=O)(=O)NC(N)=NCCc2ccc(OC)c(OC)c2)cc1,13.1

row,SMILES,"hERG current change (%, negative = inhibition) at 1uM [%]"
1,Cc1ccc2cc(CN(Cc3ccc4c(c3)OCO4)Cc3nnnn3Cc3ccco3)c(=O)[nH]c2c1C,-1.26
2,COc1ccc(CNC(=O)c2cccs2)cc1,-0.685
3,COc1ccccc1C(=O)N/C(=C\c1cn(C)c2ccccc12)C(=O)NCCCn1ccnc1,12.2
4,Cc1ccc2c(c1)-c1cc(C)nn1C(c1ccc3c(c1)OCO3)N2 (stereo not shown),9.75
5,COc1ccc(C(=O)N/C(=C\c2cn(C)c3ccccc23)C(=O)NCCN2CCOCC2)cc1OC,14.9
6,Cc1cccnc1NC(=O)CCNS(=O)(=O)c1ccc2c(c1)c(=O)n(C)c(=O)n2C,24.2
7,CCOC(=O)c1c(NC(=O)CN2CCOCC2)sc(C(=O)NC)c1C,7.06
8,CN(C(=O)C1CCC1C(=O)O)c1nc(-c2ccc(Cl)s2)cs1 (stereo not shown),9.92
9,O=C(CNC(=S)NC(=O)c1ccc(Br)o1)c1ccccc1,14.1
10,Cc1cccc(NC(=S)NNC(=S)NC2CCCCC2)c1C,13.1
11,O=C(CCCCCNC(=O)c1ccccc1Br)N=Nc1c(O)[nH]c2ccccc12,4.75
12,Clc1ccccc1CSc1ncn(-c2ccccc2)n1,-22.1
13,Brc1ccc(OCCN2CCOCC2)cc1,5.92
14,O=C(c1n[nH]c(=O)c2ccccc12)N1CCOCC1,11.6
15,Cc1ccc(CN(C)Cc2cc(=O)oc3cc(C)c(Cl)cc23)cc1,15.6
16,Cn1ccnc1SCC(=O)c1ccc(F)cc1,14.3
17,Cc1ccc(C(=O)COC(=O)C2CCC2)cc1,18.3
18,Cc1ccc(C(C)C)c(OCC(=O)NC2CCN(C)CC2)c1,7.64
19,O=C(c1ccccc1CCc1ccccc1)N1CCOCC1,8.77
20,CCn1c(COc2ccc3c(c2)CCCC3)nnc1SCC(=O)Nc1ccc(C(=O)OC)cc1,3.65
21,CCOc1cc(C(=O)N(C)CC(=O)Nc2cccc(F)c2)ccc1OCC(=O)N1CCCCC1,8.02
22,Cc1ccc(-c2csc3nnc(SCC(=O)NCc4ccc5c(c4)OCO5)n23)cc1,-21.1
